# Experimental data: paper PMC12820563, “FoxP3 forms a head-to-head dimer in vivo and stabilizes its multimerization on adjacent microsatellites”
# The list shows a part of the results.
# Target: T1, MBP-FoxP1dN (Mus musculus, UniProt P58462 326-579)
# T1 sequence: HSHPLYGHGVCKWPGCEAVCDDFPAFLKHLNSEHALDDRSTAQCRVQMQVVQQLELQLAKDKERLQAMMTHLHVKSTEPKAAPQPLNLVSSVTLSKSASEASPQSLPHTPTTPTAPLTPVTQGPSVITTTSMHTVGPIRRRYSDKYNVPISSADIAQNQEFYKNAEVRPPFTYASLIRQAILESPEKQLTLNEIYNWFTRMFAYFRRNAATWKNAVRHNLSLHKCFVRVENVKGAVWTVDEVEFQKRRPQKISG
# Experiment: PD-seq (MBP pull-down with sequencing); 20 mM Tris-HCl pH 7.5, 100 mM NaCl, 1.5 mM MgCl2, 0.4 uM protein, 0.1 uM dsDNA library, 30 min, room temperature, amylose pull-down; high values mean tight binding
# Details: protein: recombinant; tags: His6-MBP; chain copies: 2; dsDNA, one strand shown
# Procedure, shortened: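 Mouse FoxP3 or FoxP1 fragment lacking the N-terminus, His6-MBP-tagged and expressed in E. coli, was incubated at 0.4 µM with 0.1 µM Klenow-filled degenerate double-stranded DNA library for 30 min at room temperature in Tris pH 7.5 buffer with NaCl and MgCl2. Complexes captured on amylose resin were washed three times and their DNA sequenced on Illumina. Binding is reads-per-million enrichment of pull-down over input, replicates pooled.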
row,Sequence,binding signal
1,GATGATTGTTCTCCCAGCTGATGAATTAGCTGTATCGAGTAAACAAATTTTCCTAATCTTTCTGTTCAAGCGCCATCTAC,1.04 RPM ratio (pull-down/input)
2,GATGATTGTTCTCCCAGCTGATGAATTTATGACGTCGAGTAAACAAATTTTCCTAATCTTTCTGTTCAAGCGCCATCTAC,1.14 RPM ratio (pull-down/input)
3,GATGATTGTTCTCCCAGCTGATGAATTCATACTTTCGAGTAAACAAATTTTCCTAATCTTTCTGTTCAAGCGCCATCTAC,0.982 RPM ratio (pull-down/input)
4,GATGATTGTTCTCCCAGCTGATGAATTGTATAGGTCGAGTAAACAAATTTTCCTAATCTTTCTGTTCAAGCGCCATCTAC,1 RPM ratio (pull-down/input)
5,GATGATTGTTCTCCCAGCTGATGAATTCCAATCATCGAGTAAACAAATTTTCCTAATCTTTCTGTTCAAGCGCCATCTAC,0.962 RPM ratio (pull-down/input)
6,GATGATTGTTCTCCCAGCTGATGAATTGACAATGTCGAGTAAACAAATTTTCCTAATCTTTCTGTTCAAGCGCCATCTAC,1.32 RPM ratio (pull-down/input)
7,GATGATTGTTCTCCCAGCTGATGAATTCGGTGTCTCGAGTAAACAAATTTTCCTAATCTTTCTGTTCAAGCGCCATCTAC,0.857 RPM ratio (pull-down/input)
8,GATGATTGTTCTCCCAGCTGATGAATTCGACGGATCGAGTAAACAAATTTTCCTAATCTTTCTGTTCAAGCGCCATCTAC,0.799 RPM ratio (pull-down/input)
9,GATGATTGTTCTCCCAGCTGATGAATTCGAATCCTCGAGTAAACAAATTTTCCTAATCTTTCTGTTCAAGCGCCATCTAC,0.802 RPM ratio (pull-down/input)
10,GATGATTGTTCTCCCAGCTGATGAATTTTGTGGTTCGAGTAAACAAATTTTCCTAATCTTTCTGTTCAAGCGCCATCTAC,1.21 RPM ratio (pull-down/input)
11,GATGATTGTTCTCCCAGCTGATGAATTACTTGATTCGAGTAAACAAATTTTCCTAATCTTTCTGTTCAAGCGCCATCTAC,1.12 RPM ratio (pull-down/input)
12,GATGATTGTTCTCCCAGCTGATGAATTCGTGCGCTCGAGTAAACAAATTTTCCTAATCTTTCTGTTCAAGCGCCATCTAC,0.833 RPM ratio (pull-down/input)
13,GATGATTGTTCTCCCAGCTGATGAATTGCGCGACTCGAGTAAACAAATTTTCCTAATCTTTCTGTTCAAGCGCCATCTAC,1.05 RPM ratio (pull-down/input)
14,GATGATTGTTCTCCCAGCTGATGAATTGTACCCTTCGAGTAAACAAATTTTCCTAATCTTTCTGTTCAAGCGCCATCTAC,0.979 RPM ratio (pull-down/input)
15,GATGATTGTTCTCCCAGCTGATGAATTCTACGCGTCGAGTAAACAAATTTTCCTAATCTTTCTGTTCAAGCGCCATCTAC,0.902 RPM ratio (pull-down/input)
16,GATGATTGTTCTCCCAGCTGATGAATTAGTGCTCTCGAGTAAACAAATTTTCCTAATCTTTCTGTTCAAGCGCCATCTAC,0.89 RPM ratio (pull-down/input)

row,Sequence,binding signal
1,GATGATTGTTCTCCCAGCTGATGAATTAAGTAGGTCGAGTAAACAAATTTTCCTAATCTTTCTGTTCAAGCGCCATCTAC,0.924 RPM ratio (pull-down/input)
2,GATGATTGTTCTCCCAGCTGATGAATTGTGCCGGTCGAGTAAACAAATTTTCCTAATCTTTCTGTTCAAGCGCCATCTAC,0.899 RPM ratio (pull-down/input)
3,GATGATTGTTCTCCCAGCTGATGAATTTGTAGTCTCGAGTAAACAAATTTTCCTAATCTTTCTGTTCAAGCGCCATCTAC,1.05 RPM ratio (pull-down/input)
4,GATGATTGTTCTCCCAGCTGATGAATTCAACTACTCGAGTAAACAAATTTTCCTAATCTTTCTGTTCAAGCGCCATCTAC,0.92 RPM ratio (pull-down/input)
5,GATGATTGTTCTCCCAGCTGATGAATTGGTTCACTCGAGTAAACAAATTTTCCTAATCTTTCTGTTCAAGCGCCATCTAC,0.937 RPM ratio (pull-down/input)
6,GATGATTGTTCTCCCAGCTGATGAATTTCGCGGATCGAGTAAACAAATTTTCCTAATCTTTCTGTTCAAGCGCCATCTAC,0.795 RPM ratio (pull-down/input)
7,GATGATTGTTCTCCCAGCTGATGAATTGTCTCATTCGAGTAAACAAATTTTCCTAATCTTTCTGTTCAAGCGCCATCTAC,1.04 RPM ratio (pull-down/input)
8,GATGATTGTTCTCCCAGCTGATGAATTGCAGCCCTCGAGTAAACAAATTTTCCTAATCTTTCTGTTCAAGCGCCATCTAC,0.995 RPM ratio (pull-down/input)
9,GATGATTGTTCTCCCAGCTGATGAATTGGAGTGCTCGAGTAAACAAATTTTCCTAATCTTTCTGTTCAAGCGCCATCTAC,0.879 RPM ratio (pull-down/input)
10,GATGATTGTTCTCCCAGCTGATGAATTCGCCATGTCGAGTAAACAAATTTTCCTAATCTTTCTGTTCAAGCGCCATCTAC,0.809 RPM ratio (pull-down/input)
11,GATGATTGTTCTCCCAGCTGATGAATTAACCATGTCGAGTAAACAAATTTTCCTAATCTTTCTGTTCAAGCGCCATCTAC,0.832 RPM ratio (pull-down/input)
12,GATGATTGTTCTCCCAGCTGATGAATTGAGGCCTTCGAGTAAACAAATTTTCCTAATCTTTCTGTTCAAGCGCCATCTAC,0.914 RPM ratio (pull-down/input)
13,GATGATTGTTCTCCCAGCTGATGAATTCGGGGCCTCGAGTAAACAAATTTTCCTAATCTTTCTGTTCAAGCGCCATCTAC,0.744 RPM ratio (pull-down/input)
14,GATGATTGTTCTCCCAGCTGATGAATTGTGTTGCTCGAGTAAACAAATTTTCCTAATCTTTCTGTTCAAGCGCCATCTAC,1.57 RPM ratio (pull-down/input)
15,GATGATTGTTCTCCCAGCTGATGAATTCACGCTCTCGAGTAAACAAATTTTCCTAATCTTTCTGTTCAAGCGCCATCTAC,1.01 RPM ratio (pull-down/input)
16,GATGATTGTTCTCCCAGCTGATGAATTAATAGCTTCGAGTAAACAAATTTTCCTAATCTTTCTGTTCAAGCGCCATCTAC,1.01 RPM ratio (pull-down/input)
